Measurements as given in the RNAGym collection of RNA variant scans (doi:10.1101/gad.245936.114).
Variants at the background level are over-represented here.

B1: tRNA (parent)
chain: CUCUCGGUAGCCAAGUUGGUUUAAGGCGCAAGACUUUAAUUUAUCACUACGAAAUCUUGAGAUCGGGCGUUCGACUCGCCCCCGGGAGAUUUUUUCCUCGAGCAA

Variants of: B1
Test: nonsense suppression (GFP-seq) (ratio to wild type); higher = more function; SUP4oc tRNA, yeast GFP reporter sort-seq
Summary of the method: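 Yeast were grown in raffinose/galactose medium with 80 mg/L adenine, each strain bearing a genome-integrated ochre-suppressor tRNA variant from a ~3% random-mutation library, a galactose-driven GFP ochre reporter, and RFP. After sorting into GFP/RFP bins, every bin was sequenced on an Illumina platform at phred ≥30. The GFPSEQ value, a measure of nonsense suppression, is the weighted bin median GFP/RFP relative to the unmutated parent tRNA, using each variant's estimated cell share per bin as the weight. Only variants with ≥100 reads and ≥30 cells were included.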

CUCUCGGUAGCCAAGUUGGUUUAAGGCGCAAGACUUUAAUUUAUCACUACGAAAUCUUGAGAUCGGGCGUUCGGCGCGCCCCCGGUAGAUUUUUUCCUCGAGCAA and CUCUCGGUAGCCAAGUUGGUUUAAGGCGCAAGACUUUAAUUUAUCACUACGAAAUCUUGAGAUCGGGCGUUCGAAUGGCCCCCGGGAGAUUUUUUCCUCGAGCAA cannot be ordered by nonsense suppression: no more than 0.026 for the first, no more than 0.026 for the second.

CUCUCGGUAGCCAAGUUGGUUUAAGGCGCAAGACUUUAAUUUAUCACUACGAAAUCUUGAGAUCGGGCGUUCGACGCGCCCCCGGGGGAUUUUUUCCUCGAGCAA and CUCUCGGUAGCCAAGUUGGUUUAAGGCGCAAGACUUUAAUUUAUCACUACGAAAUCUUGAGAUCGGGCGUUCGAUUCGCCCCCGGGCGAUUUUUUCCUCGAGCAA cannot be ordered by nonsense suppression: no more than 0.026 for the first, no more than 0.026 for the second.

CUCUCGGUAGCCAAGUUGGUUUAAGGCGCAAGACUUUAAUUUAUCACUACGAAAUCUUGAGAUCGGGCGUUCGAUUCGCCCCCGGGUGAUUUUUUCCUCGAGCAA and CUCUCGGUAGCCAAGUUGGUUUAAGGCGCAAGACUUUAAUUUAUCACUACGAAAUCUUGAGAUCGGGCGUUCGAUUCCCCGCCGGGAGAUUUUUUCCUCGAGCAA cannot be ordered by nonsense suppression: no more than 0.026 for the first, no more than 0.026 for the second.

CUCUCGGUAGCCAAGUUGGUUUAAGGCGCAAGACUUUAAUUUAUCACUACGAAAUCUUGAGAUCGGGCGUUCGACGCGCCCACGGGCGAUUUUUUCCUCGAGCAA and CUCUCGGUAGCCAAGUUGGUUUAAGGCGCAAGACUUUAAUUUAUCACUACGAAAUCUUGAGAUCGGGCGUUCGGCUCGCCCCGGGGAGAUUUUUUCCUCGAGCAA cannot be ordered by nonsense suppression: no more than 0.026 for the first, no more than 0.026 for the second.

CUCUCGGUAGCCAAGUUGGUUUAAGGCGCAAGACUUUAAUUUAUCACUACGAAAUCUUGAGAUCGGGCGUUCGACAGGCCCCCGGGAGAUUUUUUCCUCGAGCAA and CUCUCGGUAGCCAAGUUGGUUUAAGGCGCAAGACUUUAAUUUAUCACUACGAAAUCUUGAGAUCGGGCGUUCGAAUCGCCCCCGGUAGAUUUUUUCCUCGAGCAA cannot be ordered by nonsense suppression: no more than 0.026 for the first, no more than 0.026 for the second.

Going from CUCUCGGUAGCCAAGUUGGUUUAAGGCGCAAGACUUUAAUUUAUCACUACGAAAUCUUGAGAUCGGGCGUUCGACCCCCCCCCGGGAGAUUUUUUCCUCGAGCAA to CUCUCGGUAGCCAAGUUGGUUUAAGGCGCAAGACUUUAAUUUAUCACUACGAAAUCUUGAGAUCGGGCGUUCGAGUCGCCCCCGGGAGGUUUUUUCCUCGAGCAA, the nonsense suppression falls from 0.118 to no more than 0.026.

Going from CUCUCGGUAGCCAAGUUGGUUUAAGGCGCAAGACUUUAAUUUAUCACUACGAAAUCUUGAGAUCGGGCGUUCGACGCGCCCCGGGGAGAUUUUUUCCUCGAGCAA to CUCUCGGUAGCCAAGUUGGUUUAAGGCGCAAGACUUUAAUUUAUCACUACGAAAUCUUGAGAUCGGGCGUUCGAGUCGCCCCCGUGAGAUUUUUUCCUCGAGCAA, the nonsense suppression rises from no more than 0.026 to 1.12.

Compared with CUCUCGGUAGCCAAGUUGGUUUAAGGCGCAAGACUUUAAUUUAUCACUACGAAAUCUUGAGAUCGGGCGUUCGAGUCGCCCCCGCGAGAUUUUUUCCUCGAGCAA, CUCUCGGUAGCCAAGUUGGUUUAAGGCGCAAGACUUUAAUUUAUCACUACGAAAUCUUGAGAUCGGGCGUUCGACCCGCCCCCGGGAGCUUUUUUCCUCGAGCAA is lower in nonsense suppression: 0.191 for the first, no more than 0.026 for the second.

Going from CUCUCGGUAGCCAAGUUGGUUUAAGGCGCAAGACUUUAAUUUAUCACUACGAAAUCUUGAGAUCGGGCGUUCGGCUCGACCCCGGGAGAUUUUUUCCUCGAGCAA to CUCUCGGUAGCCAAGUUGGUUUAAGGCGCAAGACUUUAAUUUAUCACUACGAAAUCUUGAGAUCGGGCGUUCGAUGCGCCCCCGGGAGAUUUUUUCCUCGAGCAA, the nonsense suppression rises from no more than 0.026 to 0.172.

CUCUCGGUAGCCAAGUUGGUUUAAGGCGCAAGACUUUAAUUUAUCACUACGAAAUCUUGAGAUCGGGCGUUCGACACGCCCCCAGGAGAUUUUUUCCUCGAGCAA and CUCUCGGUAGCCAAGUUGGUUUAAGGCGCAAGACUUUAAUUUAUCACUACGAAAUCUUGAGAUCGGGCGUUCGGCUCGCCCGCGGGAGAUUUUUUCCUCGAGCAA cannot be ordered by nonsense suppression: no more than 0.026 for the first, no more than 0.026 for the second.

CUCUCGGUAGCCAAGUUGGUUUAAGGCGCAAGACUUUAAUUUAUCACUACGAAAUCUUGAGAUCGGGCGUUCGGCUCGCCCCCGGGGGAUUUUUUCCUCGAGCAA and CUCUCGGUAGCCAAGUUGGUUUAAGGCGCAAGACUUUAAUUUAUCACUACGAAAUCUUGAGAUCGGGCGUUCGACCCGCCCCCGGGAUGUUUUUUCCUCGAGCAA cannot be ordered by nonsense suppression: no more than 0.026 for the first, no more than 0.026 for the second.

CUCUCGGUAGCCAAGUUGGUUUAAGGCGCAAGACUUUAAUUUAUCACUACGAAAUCUUGAGAUCGGGCGUUCGCCUCGCCGCCGCGAGAUUUUUUCCUCGAGCAA and CUCUCGGUAGCCAAGUUGGUUUAAGGCGCAAGACUUUAAUUUAUCACUACGAAAUCUUGAGAUCGGGCGUUCGACCCGCCCCGGGGAGAUUUUUUCCUCGAGCAA cannot be ordered by nonsense suppression: no more than 0.026 for the first, no more than 0.026 for the second.

CUCUCGGUAGCCAAGUUGGUUUAAGGCGCAAGACUUUAAUUUAUCACUACGAAAUCUUGAGAUCGGGCGUUCGAUUGGCCCCCGGGAGAUUUUUUCCUCGAGCAA and CUCUCGGUAGCCAAGUUGGUUUAAGGCGCAAGACUUUAAUUUAUCACUACGAAAUCUUGAGAUCGGGCGUUCGGCUCGCCUCCGGGAGAUUUUUUCCUCGAGCAA cannot be ordered by nonsense suppression: no more than 0.026 for the first, no more than 0.026 for the second.

Compared with CUCUCGGUAGCCAAGUUGGUUUAAGGCGCAAGACUUUAAUUUAUCACUACGAAAUCUUGAGAUCGGGCGUUCGCCUCGCGCCCGGGAGAUUUUUUCCUCGAGCAA, CUCUCGGUAGCCAAGUUGGUUUAAGGCGCAAGACUUUAAUUUAUCACUACGAAAUCUUGAGAUCGGGCGUUCGAUUCGCCCCCGAGAGAUUUUUUCCUCGAGCAA is higher in nonsense suppression: no more than 0.026 for the first, 1.06 for the second.

Compared with CUCUCGGUAGCCAAGUUGGUUUAAGGCGCAAGACUUUAAUUUAUCACUACGAAAUCUUGAGAUCGGGCGUUCGAUUCCCCCCCGGGAGAUUUUUUCCUCGAGCAA, CUCUCGGUAGCCAAGUUGGUUUAAGGCGCAAGACUUUAAUUUAUCACUACGAAAUCUUGAGAUCGGGCGUUCGACACGCCCCUGGGAGAUUUUUUCCUCGAGCAA is lower in nonsense suppression: 1.14 for the first, no more than 0.026 for the second.

CUCUCGGUAGCCAAGUUGGUUUAAGGCGCAAGACUUUAAUUUAUCACUACGAAAUCUUGAGAUCGGGCGUUCGACACGCCCCAGGGAGAUUUUUUCCUCGAGCAA and CUCUCGGUAGCCAAGUUGGUUUAAGGCGCAAGACUUUAAUUUAUCACUACGAAAUCUUGAGAUCGGGCGUUCGUCUCGCCACCGGGAGGUUUUUUCCUCGAGCAA cannot be ordered by nonsense suppression: no more than 0.026 for the first, no more than 0.026 for the second.

Going from CUCUCGGUAGCCAAGUUGGUUUAAGGCGCAAGACUUUAAUUUAUCACUACGAAAUCUUGAGAUCGGGCGUUCGACACGCCCCCGUGAGAUUUUUUCCUCGAGCAA to CUCUCGGUAGCCAAGUUGGUUUAAGGCGCAAGACUUUAAUUUAUCACUACGAAAUCUUGAGAUCGGGCGUUCGGAUCGCCCCCGGCAGAUUUUUUCCUCGAGCAA, the nonsense suppression falls from 0.0588 to no more than 0.026.

CUCUCGGUAGCCAAGUUGGUUUAAGGCGCAAGACUUUAAUUUAUCACUACGAAAUCUUGAGAUCGGGCGUUCGCCUCACCCCCGGGAGAUUUUUUCCUCGAGCAA and CUCUCGGUAGCCAAGUUGGUUUAAGGCGCAAGACUUUAAUUUAUCACUACGAAAUCUUGAGAUCGGGCGUUCGCCUCGCCCCCGGUAGAUUUUUUCCUCGAGCAA cannot be ordered by nonsense suppression: no more than 0.026 for the first, no more than 0.026 for the second.

Compared with CUCUCGGUAGCCAAGUUGGUUUAAGGCGCAAGACUUUAAUUUAUCACUACGAAAUCUUGAGAUCGGGCGUUCGACCCGCCCCCGGGGGAUUUUUUCCUCGAGCAA, CUCUCGGUAGCCAAGUUGGUUUAAGGCGCAAGACUUUAAUUUAUCACUACGAAAUCUUGAGAUCGGGCGUUCGACACGGCCCCGGGAGAUUUUUUCCUCGAGCAA is lower in nonsense suppression: 0.932 for the first, no more than 0.026 for the second.

CUCUCGGUAGCCAAGUUGGUUUAAGGCGCAAGACUUUAAUUUAUCACUACGAAAUCUUGAGAUCGGGCGUUCGACACGCCCCCGGGAGGUUUUUUCCUCGAGCAA and CUCUCGGUAGCCAAGUUGGUUUAAGGCGCAAGACUUUAAUUUAUCACUACGAAAUCUUGAGAUCGGGCGUUCGACGCGACCCCGUGAGAUUUUUUCCUCGAGCAA cannot be ordered by nonsense suppression: no more than 0.026 for the first, no more than 0.026 for the second.

CUCUCGGUAGCCAAGUUGGUUUAAGGCGCAAGACUUUAAUUUAUCACUACGAAAUCUUGAGAUCGGGCGUUCGACACGCCCACGGGAGAUUUUUUCCUCGAGCAA and CUCUCGGUAGCCAAGUUGGUUUAAGGCGCAAGACUUUAAUUUAUCACUACGAAAUCUUGAGAUCGGGCGUUCGACACGCCCUCGGGAGAUUUUUUCCUCGAGCAA cannot be ordered by nonsense suppression: no more than 0.026 for the first, no more than 0.026 for the second.

CUCUCGGUAGCCAAGUUGGUUUAAGGCGCAAGACUUUAAUUUAUCACUACGAAAUCUUGAGAUCGGGCGUUCGGCUCGCCCCCGAGAGAUUUUUUCCUCGAGCAA and CUCUCGGUAGCCAAGUUGGUUUAAGGCGCAAGACUUUAAUUUAUCACUACGAAAUCUUGAGAUCGGGCGUUCGGCUCGCCCCCGGGAUAUUUUUUCCUCGAGCAA cannot be ordered by nonsense suppression: no more than 0.026 for the first, no more than 0.026 for the second.

Going from CUCUCGGUAGCCAAGUUGGUUUAAGGCGCAAGACUUUAAUUUAUCACUACGAAAUCUUGAGAUCGGGCGUUCGAGUCGCCCCCGGGCGAUUUUUUCCUCGAGCAA to CUCUCGGUAGCCAAGUUGGUUUAAGGCGCAAGACUUUAAUUUAUCACUACGAAAUCUUGAGAUCGGGCGUUCGAAUCGCUCCCGGGAGAUUUUUUCCUCGAGCAA, the nonsense suppression rises from no more than 0.026 to 1.01.

CUCUCGGUAGCCAAGUUGGUUUAAGGCGCAAGACUUUAAUUUAUCACUACGAAAUCUUGAGAUCGGGCGUUCGAAUCGCGCCCGGGAGAUUUUUUCCUCGAGCAA and CUCUCGGUAGCCAAGUUGGUUUAAGGCGCAAGACUUUAAUUUAUCACUACGAAAUCUUGAGAUCGGGCGUUCGACACGCCCCCGGCAGAUUUUUUCCUCGAGCAA cannot be ordered by nonsense suppression: no more than 0.026 for the first, no more than 0.026 for the second.

CUCUCGGUAGCCAAGUUGGUUUAAGGCGCAAGACUUUAAUUUAUCACUACGAAAUCUUGAGAUCGGGCGUUCGACGCGCUCCCGGGAGAUUUUUUCCUCGAGCAA and CUCUCGGUAGCCAAGUUGGUUUAAGGCGCAAGACUUUAAUUUAUCACUACGAAAUCUUGAGAUCGGGCGUUCGACGCGCACCCGGGAGAUUUUUUCCUCGAGCAA cannot be ordered by nonsense suppression: no more than 0.026 for the first, no more than 0.026 for the second.

CUCUCGGUAGCCAAGUUGGUUUAAGGCGCAAGACUUUAAUUUAUCACUACGAAAUCUUGAGAUCGGGCGUUCGAAUCGCCGCCGGGAGAUUUUUUCCUCGAGCAA and CUCUCGGUAGCCAAGUUGGUUUAAGGCGCAAGACUUUAAUUUAUCACUACGAAAUCUUGAGAUCGGGCGUUCGACCCGACCCCGGGAGAUUUUUUCCUCGAGCAA cannot be ordered by nonsense suppression: no more than 0.026 for the first, no more than 0.026 for the second.

CUCUCGGUAGCCAAGUUGGUUUAAGGCGCAAGACUUUAAUUUAUCACUACGAAAUCUUGAGAUCGGGCGUUCGCCCCGCCCCCGGAAGGUUUUUUCCUCGAGCAA and CUCUCGGUAGCCAAGUUGGUUUAAGGCGCAAGACUUUAAUUUAUCACUACGAAAUCUUGAGAUCGGGCGUUCGAGUCGCCCCGGGGAGAUUUUUUCCUCGAGCAA cannot be ordered by nonsense suppression: no more than 0.026 for the first, no more than 0.026 for the second.
